Experimental data reported in the supplement of paper PMC11417369.
This is one part of the list.

test system: PfSIP2 AP2 domain 1 (GST-tagged); assay: gcPBM binding intensity (ln(normalized median fluorescence intensity)); higher = stronger DNA binding
How it was run: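 Using an Agilent 4 × 180k array, primer-extended double-stranded 36-bp intergenic genomic probes and negative controls were exposed for 1 h to GST-fused P. falciparum DNA-binding domains expressed in E. coli. Binding was carried out in 1× PBS with 1% milk, 0.2 mg/ml BSA, 0.5% salmon testes DNA and 0.03% Triton X-100, and protein was detected with Alexa488 anti-GST antibody and a 488 nm scan. Binding intensity is the highest Masliner-normalised natural-log median intensity across replicate spots of either probe orientation.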

Sequence	gcPBM binding intensity (ln)
AAGAATGTTATTAGTACACACAATTATTATAGAAAT [CACACA_site7714]	6.94
AATGTACAAATACGTACACACATATTTATATTTATA [CACACA_site6833]	7.46
TAGTTTTTTATATATTGTACAAATAATATATGATAT [XGTACX_site4220]	7.12
AGTGATTATTAATAATGTACATATCTATAAATATAT [XGTACX_site4734]	7
TTTTTTTTTTTTTTCTTACAATTTATTGAACAAATG [XGTACX_negctrl_site515]	7.11
TATATATTTCATCCTTGTACACATTTGTGTTTACAT [XGTACX_site1132]	7.02
GTATTGCATGAGGACACACACAAAAAAAATATAGAT [CACACA_site6500]	7.4
AATAAATAAATATATATATATATATATATATATATA [CACACA_negctrl_site365]	9.02
ACAATTTACACTTAAACACACAAAAAAAAGTTATAT [CACACA_site7056]	7.18
TATCAAAATTGTAATTGTACTTGTAAGTGGATATAT [XGTACX_site5949]	7.12
ATATATTGCACTTTTTGTACATAATGAAAAATTTTT [XGTACX_site8223]	8.1
TACATATTGATATATACACACAAAAAAATAAATTCT [CACACA_site6198]	7
ACCTTAATAAAAAAAAGTACAAACATGTTCAAATTG [XGTACX_site1556]	7.34
AATTCGTACCTCATTTGTACATATATATATATATAT [XGTACX_site5513]	9.34
TTTTTTATAGTACATTACCAAAAAAAAAAAAAAAAA [GTGCAC_negctrl_site549]	7.07
CATACACCCATACATACACACATACAGATATATATA [CACACA_site5123]	7.45
TCACCATATAAACGTGCACACTACAAAAATATATAA [CACACA_site5413]	11
CTTTTATTTTATTTTAGTACGCAACATTCTCTATAT [XGTACX_site7279]	7.17
TATTTATTTAAAAATTGTACGTAGGATTATACACTT [XGTACX_site286]	7.04
ATATAAATATTATAATGTACATATAATATATTTATT [XGTACX_site5212]	6.9
ATCTCTGTATGTTAGACACACATATTTTAATATGTT [CACACA_site4244]	6.83
TAAAATTTGTACATAGTGCAATTTTTTTTTTTTTTT	8.15

Sequence	gcPBM binding intensity (ln)
AGCAAAACATAAAATAGTACACATTTAACAAAAAAA [XGTACX_site2921]	7.24
TTTTATCATCTTTTTACATTATGTATAAATATTTTC [CACACA_negctrl_site206]	6.99
AAAAGAACAATGAAGTGTACTAATAATTATTTATGT [XGTACX_site6649]	7.22
ATATAATATATTTTTGAACACACAATATATATATAT [CACACA_site9368]	9.01
TAACTAATATATAAAACACACATCATAAAAATATAA [CACACA_site768]	6.96
TTTTGTTGAAAAGTAAGATATTCCAACATGTTTTTA [CACACA_negctrl_site391]	6.69
ATATCATTTTCCTGCACACATAAATTTATATAATAT [CACACA_site1048]	7.82
ACACATAAATGAATAAATAAATAAATATAAATATAA [CACACA_negctrl_site1784]	6.73
TTCTTACATGAGTGTACACACTTTTTTTCAGAAAAT [CACACA_site4215]	7.39
GGTGGGGAGGAGTAATGTACAAATTAACATATTATG [XGTACX_site6666]	8.48
AATAGTCGGGTGCATACACACCTTAAATATAATATA [CACACA_site8271]	11.3
TTATAAAATATTTATGCATGTGAAGAATATTATAAA [TGCATGCA_site1047]	7.12
GAAAAAAGTATCAAGGTGCGTATATACATCAAAATA	9.51
TATATATTATAAAATTGTACATATATTAAATTTTTT [XGTACX_site5852]	6.93
AAATGTTGAGCAGTACAAAAAAAAAAAAAAAAAAAA [GTGCAC_negctrl_site518]	7.06
CAAAACAAAACGTATGCACACAATTAAAATATTAAA [CACACA_site5815]	7.78
TTTTTTTTTTAATTGGGTACATATATAATTTAAGAA [XGTACX_site2732]	7.02
CATTTATATAAAAGAACACACATATAAAATATTATT [CACACA_site3601]	6.96
AAGATACCAATGAAATGTACATATATATAAATATAA [XGTACX_site2135]	7.05
ATATATATATATGTATGTACGTATGTATTTACTGCT [XGTACX_site3839]	8.95
TTCATACATATTTGAAGTACATTTAAAAATGTCCTT [XGTACX_site747]	6.77
TCCAATATATTTATGAGTACTTATAAATTATACGTT [XGTACX_site742]	7.4

Sequence	gcPBM binding intensity (ln)
GAAGTAATTTCATATACACACATATACATACATACA [CACACA_site6753]	7.45
TTTGAATAAAAACAAAAAATTAAATTAAATTAAATA [CACACA_negctrl_site312]	6.72
TATTTATAATTATAATAATATATATATATATATATA [TGCATGCA_negctrl_site173]	8.72
ATTGTGTTAATAAAATGTACATTTTCTCTACATTAA [XGTACX_site2766]	7.04
ATTAAATAAAAAAACACACACATATATACCTATATA [CACACA_site5837]	6.99
CAAAACATTTTATCTACACACATATATAAATAAATA [CACACA_site3220]	6.92
AATAAAACATAATAATGTACTCAAAGGTTTAACTTG [XGTACX_site4711]	6.82
AACGTGTGGAGAATTATAAATGAGTAAAAAATATAT [XGTACX_negctrl_site562]	7.29
GGGGGGAGGGTGAATACACACGTAATAATCATAAAC [CACACA_site8502]	9.43
ATATATGTGTATGTATGTACTTATATTTTTTTTTAT [XGTACX_site1733]	7
GCAAATCAATTTTTTTTTAAAACTCATTTTTTCGTT [CACACA_negctrl_site1136]	6.77
TCCGTTATATATGTGTGTACATATAATATATCCTCA [XGTACX_site2588]	7.1
AAAAATGAAAGTAAGACATGCATGGAATTTTTTTTA [TGCATGCA_site347]	6.68
TTTTTTTTTTATGAAAGTACATATGAAAAATACGAA [XGTACX_site3451]	7.72
TACTATAACGCACATACACACAAAAAAAAAAAAAAA [CACACA_site8073]	7.4
TATATATATATTTTTGCATGTAATTTTTATGAGGAC [TGCATGCA_site884]	8.44
ATATGGTGATATAGGTGTACATTTTGATGCTTATTT [XGTACX_site4283]	6.95
TTATACATGAAATATTGTACACATATATATATATAT [XGTACX_site4378]	9.3
TTTTTTTTTTTCTTAGTGCGCGTGAAAAATATAAAA	7.89
AATTAGATTATGCACACACACTTAAAAATAATAAAT [CACACA_site7015]	8.15
TTACTCAAACAAACAAAAAAAAAAAAAAAAAAAAAA [TGCATGCA_negctrl_site457]	6.94
ATATATAGAATGTGTACACACATATGTATTTATATA [CACACA_site810]	7.34

Sequence	gcPBM binding intensity (ln)
ATTTTTTATGGACAAAAGACCTCTGATGTAAATATA [CACACA_negctrl_site1081]	6.98
GATAAATGTATATATGCATGCACATATATTTATACA [TGCATGCA_site748]	8.57
TATTTGTAATATTATACACACATTATATATTACAAA [CACACA_site5804]	7.09
CGTAGCCACACTAACACACACAAATATACACAATCA [CACACA_site7379]	7.01
ATTTAAATAACGTATGTATATACATATATATATATA [TGCATGCA_negctrl_site207]	9.43
TATTTTGTATATAAATGTACAAGTATATATTTTTTC [XGTACX_site7855]	6.74
TATGAATATTTGTATACATGCATATAGAAATCATAT [TGCATGCA_site533]	7.04
ATATATTATATATATATATATATATATTATTATTGT [TGCATGCA_negctrl_site286]	7.73
TGCATTATTTACAAGGTGCGTTACAAATGTGTAACA [GTGCAC_site9442]	9.7
GCTTTAATCTGAAAGTGTACAGATAATATATTTATA [XGTACX_site2462]	7.15
AGATACGATTATATGCGTTCAATATACCAAATAATT [TGCATGCA_negctrl_site501]	6.87
CTTTGTGTTAAAAGTAGTACACCAAAAATATGACTT [XGTACX_site622]	7.28
CACGCGCCCGGACACACACACACACCCATATATATA [CACACA_site5251]	7.82
TTTTTCATCATATGTTGTACAATGTGTAGATATATT [XGTACX_site3195]	7.25
ATTTATATATAATATACACACATATAATCCACATAT [CACACA_site699]	7.1
AAGAGAAATTATAACATGTGAAATGTATTATATATA [TGCATGCA_negctrl_site254]	6.99
TATCTCTTATTTTATTGTACTTAACTATGCTATAAT [XGTACX_site4904]	6.92
AAAAATAAAAAAATGACACACATATATATATATATA [CACACA_site2307]	9.63
TAAGTATAATATTGATGTACATATAATAACTTGTAT [XGTACX_site417]	7.03
TAGTTAACAAATAATGCACACAAATGGATAAAATTA [CACACA_site9240]	7.83
ATTCAAATTGTAGAAACACACAAAAACTTAACATAT [CACACA_site2617]	6.99
CATATGATATGTTATACACACACGTATATATGAATT [CACACA_site3446]	6.93
